This is an account of results in paper PMC12136788.

This is one part of the list.

T1: UNK ZnF1-3 (human, UniProt Q9C0B0 31-174)
T1 sequence: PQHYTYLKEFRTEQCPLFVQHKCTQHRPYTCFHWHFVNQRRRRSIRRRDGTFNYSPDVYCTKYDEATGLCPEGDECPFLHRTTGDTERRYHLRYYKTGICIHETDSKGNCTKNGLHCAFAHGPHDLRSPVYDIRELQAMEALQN

B1: chr4:95690885:95690886:+_ENSMUSG00000028572_ENSMUST00000156910|mus_mus|mus_mus_mus_hu_False|58_88 (ssRNA)
RNA: GGGAGUUCUACAGUCCGACGAUCUUUAGAAAAUGUUAAAUACCAUGAGCAUGCUAAUUCAAAGGCUUAUUUUAUUUUACUAAAAGACACAGGCAAGCAGACACUACAAGAAUAUAUGAAAAUGAAACUCAACAAUAUAACUGUCAACAGAGGAUUGAGCAUCA
B2: chr8:42798479:42798480:+_ENSG00000168172_ENST00000307602|hu_hu|motif|central (ssRNA)
RNA: GGGAGUUCUACAGUCCGACGAUCAGAAUGCUCCCCAAUAAGGUUCACAUCAGGAAGGGUAAAGUCAUUAAUUUGCUGUCCGGAAAUCUCAUGAUUAUAAUCCAAGAUUCCUUUUAAAAUUUUCUUUAAAUUGCUUAUCUUUAGCAACAGAGGAUUGAGCAUCA
B3: 60194225_60194345_1452_CDS_ENSG00000139970_ENST00000267484|human|control|control (ssRNA)
RNA: GGGAGUUCUACAGUCCGACGAUCCGGUCCGGACCUGGCCUUGACCUCGGGCCUGUCGGCCAGCUGGCCCACCGGCCGUGGGUUCUCGGCGGUUUCAUACGAUAAUCCCUUUGCUUCUUUGAUGGCGGUGAUCAGCUCAUCCUCCAACAGAGGAUUGAGCAUCA
B4: chr10:33190432:33190433:-_ENSG00000150093_ENST00000302278|hu_mus|hu_hu_hu_mus_True|28_108 (ssRNA)
RNA: GGGAGUUCUACAGUCCGACGAUCUACAUUUUCAAAACCUGCAUGUGAAUAAAACCCUGGCCACAGAGCCCCAAAACUACCCUACUGUGACUAAGAUGCUGCUGCUGUUGCAUUCAGGUUGCAAAAUCCGCCUGAGUAGGAUUCCAACAGAGGAUUGAGCAUCA
B5: 24094108_24095024_1607_3pUTR_ENSMUSG00000038181_ENSMUST00000088295|mouse|control|control (ssRNA)
RNA: GGGAGUUCUACAGUCCGACGAUCCUACUGUACGGUUAACCGCGACGGCCAGGGUGGACAGUGUGGCUCGAGAAGUCAGGACAGCCACCAGCAGGCGCUCACGAGAGCCCAGCUCUGUCUGUAUAUACCGAGUCCUGAGCACCUCAACAGAGGAUUGAGCAUCA
B6: chr7:32526834:32526835:-_ENSG00000106355_ENST00000409292|hu_hu|FALSE|FALSE (ssRNA)
RNA: GGGAGUUCUACAGUCCGACGAUCUAGAAAGUGGGAAAAAAAAUUCCAUUUUCUUGUCAUUAUAAGCCAAAACAAAAUCUAGUGUAAGUCAAGGAAACUCAUUCACACUUCAGGUCCUUCUCCUCCAGGAACCAGCAUUGUUAUCAACAGAGGAUUGAGCAUCA
B7: 46963473_46964311_1556_3pUTR_ENSMUSG00000025041_ENSMUST00000168536|mouse|control|control (ssRNA)
RNA: GGGAGUUCUACAGUCCGACGAUCGUGGCGAGAGGGGACUCCAUCUCAUUGAUAUCCACAUGCGUGUGUUCCACCGUUGACUCGUGCGGCAUCAGGACAUGGGCAGCUCUGAAGAGGUAGCUGAAUGGGUAGUACAGCAGGUUGCAACAGAGGAUUGAGCAUCA
B8: chr3:3214544:3214545:-_ENSG00000113851_ENST00000231948|hu_hu|FALSE|FALSE (ssRNA)
RNA: GGGAGUUCUACAGUCCGACGAUCUUUGAACCUUUGUCUUCCAAUUGCUUUCACUUUCACUAUCUCAAUUCCAAAAUCCUGUUCUUCUCGAUAGGCAUAUAUCUCUGCUGUUGUUCCAAACUGUGCUUCCCUUUCCUGUACAUUCAACAGAGGAUUGAGCAUCA
B9: 151032446_151032566_2273_5pUTR_ENSG00000213190_ENST00000368921|human|control|control (ssRNA)
RNA: GGGAGUUCUACAGUCCGACGAUCUUAAGGACUUUAGGUUACAAAGUAUUUUUAAGAAUCAGAGUAUUUUUCCACCCCUUCUCCCAAUCCCUGCUCCUCCAGACUCGCCUCUCUACCCUCACAAUGGGUAAAUAAACCUAGUCCCAACAGAGGAUUGAGCAUCA
B10: chr17:62499352:62499353:-_ENSG00000108654_ENST00000581693|hu_mus|FALSE|FALSE (ssRNA)
RNA: GGGAGUUCUACAGUCCGACGAUCUCUUAUUUGAUCCACAAUUUUCCUUAUCUGGGGUUCAAAUCCCAUAUCAAGCAUCCUAUCAGCUUCAUCAAGGACAAGGUAAGUUGUUCUUCUCAGAUUGGUUUUCCCACACUCUAAAAACAACAGAGGAUUGAGCAUCA
B11: 69561058_69561178_1617_CDS_ENSG00000138604_ENST00000261858|human|control|control (ssRNA)
RNA: GGGAGUUCUACAGUCCGACGAUCCUGCUCAGAUAGAAACUUAUAAGGGGCUGUUGCCCUUAAAGCUGAAUUGAGGAAUAUAUGGUCUUUUGUUAACAGAUAGGCCCUGACUAAUGUAGAAAUGGCUUGCCCUUGGGCCAUGGCCAACAGAGGAUUGAGCAUCA
B12: 24893896_24894016_431_3pUTR_ENSMUSG00000019132_ENSMUST00000019276|mouse|control|control (ssRNA)
RNA: GGGAGUUCUACAGUCCGACGAUCGACACUGGAUCACUCGGGUUCUCACUCAUUUCAAUGUGGAAACAAUUCCCGCCCGGGUAGAGGAGGCGGGAAGAGAGUUAAGUAGGAAGGAUCAGUUGGGAGGAGGGGAAAAGAAGAGAACAACAGAGGAUUGAGCAUCA
B13: chr17:55757426:55757427:+_ENSG00000153944_ENST00000284073|hu_mus|FALSE|FALSE (ssRNA)
RNA: GGGAGUUCUACAGUCCGACGAUCAUAGAGUCUAUGCCCACCUCCCGCUCCGCGUAUCACAACUUCGAUUCAGUGUGUGCUAAAGUCCCAGAUGAAAAGUCUUACAGUCUCAGAACUGGUACCAAAAAUGGAGAGUAACAUCACCAACAGAGGAUUGAGCAUCA
B14: chr5:37310712:37310713:-_ENSG00000113569_ENST00000381843|hu_hu|motif|central (ssRNA)
RNA: GGGAGUUCUACAGUCCGACGAUCACAAAUUGCAUCAUCAGUGCUAUAUAGAAGUGGGCAGAUAUCCUGUAAAUGUAAACGGAUGCCAUCAACAGCGGCAUUAUCUCUGAUGUAGCAGUUGAUAAGAGAAGCAAUUAAUGCCCCCAACAGAGGAUUGAGCAUCA

The experiment deals with T1, UNK ZnF1-3. As to the kind of experiment: nsRBNS (natural sequence RNA bind-n-seq); RBNS binding buffer (assumed for nsRBNS): 25 mM Tris pH 7.5, 150 mM KCl, 3 mM MgCl2, 0.01% Triton X-100, 500 ug/ml BSA, 20 U/ml SUPERase-In, 4 C; UNK is unkempt and MSI1 is Musashi-1; names of the RNAs are library labels; protein concentration not given here; high values mean tight binding.
B1: the binding signal came to 1.97 enrichment R. The same measure for B2: 1.52 enrichment R. The figure for B3 is 0.645 enrichment R.

For the molecule B4, the binding signal came to 1.74 enrichment R.

Turning to B5, the binding signal amounted to 0.751 enrichment R.

On to B6, for which the binding signal worked out at 1.06 enrichment R. Regarding B7, the binding signal was 1.51 enrichment R. The figure for B8 is 0.436 enrichment R. The figure for B9 is 1.07 enrichment R; for B10 it is 0.599 enrichment R; for B11 it is 1.14 enrichment R. The figure for B12 is 1.89 enrichment R; for B13 it is 1.66 enrichment R. Take B14: the binding signal came out at 1.65 enrichment R.
